This is an account of results in paper PMC12292926.

Sequences of proteins named here, by UniProt entry; tags and fusion partners are left off. A change or cut given only in a name is not applied to a line headed by its entry. A line that says so, or that is headed by a name, gives the form on record, which may keep a tag or linker. Residues count along the entry.
UniProt Q9H4L4, residues 303-574: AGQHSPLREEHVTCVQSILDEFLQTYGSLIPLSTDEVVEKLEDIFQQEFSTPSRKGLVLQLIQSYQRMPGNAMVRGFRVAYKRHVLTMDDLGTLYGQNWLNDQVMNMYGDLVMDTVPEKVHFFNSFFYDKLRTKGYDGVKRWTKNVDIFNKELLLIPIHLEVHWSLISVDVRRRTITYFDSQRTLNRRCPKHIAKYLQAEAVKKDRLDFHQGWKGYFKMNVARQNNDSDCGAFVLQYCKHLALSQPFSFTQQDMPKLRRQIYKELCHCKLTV
UniProt Q8IZL8: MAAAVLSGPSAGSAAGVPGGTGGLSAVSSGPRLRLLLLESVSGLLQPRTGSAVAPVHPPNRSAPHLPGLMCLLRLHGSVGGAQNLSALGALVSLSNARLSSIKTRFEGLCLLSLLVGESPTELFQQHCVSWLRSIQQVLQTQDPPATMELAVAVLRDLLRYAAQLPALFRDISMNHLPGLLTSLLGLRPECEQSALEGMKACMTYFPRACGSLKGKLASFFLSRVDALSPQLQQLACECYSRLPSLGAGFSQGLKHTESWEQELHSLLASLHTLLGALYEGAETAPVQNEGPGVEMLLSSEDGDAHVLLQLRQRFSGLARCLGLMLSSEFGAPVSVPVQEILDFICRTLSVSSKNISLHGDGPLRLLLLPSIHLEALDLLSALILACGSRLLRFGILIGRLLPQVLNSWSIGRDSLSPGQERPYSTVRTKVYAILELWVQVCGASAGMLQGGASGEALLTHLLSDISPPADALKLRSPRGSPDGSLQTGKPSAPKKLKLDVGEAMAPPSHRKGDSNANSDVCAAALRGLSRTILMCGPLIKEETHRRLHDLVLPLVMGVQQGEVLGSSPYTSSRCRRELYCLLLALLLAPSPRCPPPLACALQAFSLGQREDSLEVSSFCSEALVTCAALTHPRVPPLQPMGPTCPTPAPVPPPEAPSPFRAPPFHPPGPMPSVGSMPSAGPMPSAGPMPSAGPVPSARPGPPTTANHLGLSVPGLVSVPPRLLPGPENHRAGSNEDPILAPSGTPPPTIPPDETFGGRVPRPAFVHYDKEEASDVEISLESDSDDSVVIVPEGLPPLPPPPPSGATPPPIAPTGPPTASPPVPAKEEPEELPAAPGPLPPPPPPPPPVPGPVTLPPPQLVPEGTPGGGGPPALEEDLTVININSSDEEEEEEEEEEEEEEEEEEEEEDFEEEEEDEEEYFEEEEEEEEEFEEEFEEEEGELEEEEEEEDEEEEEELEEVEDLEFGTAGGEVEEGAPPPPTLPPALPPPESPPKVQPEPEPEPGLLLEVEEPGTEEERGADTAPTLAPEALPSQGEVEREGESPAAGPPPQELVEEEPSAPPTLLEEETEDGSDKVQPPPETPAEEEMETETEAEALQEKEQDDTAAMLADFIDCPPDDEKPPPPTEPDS
PELP1 Rix1 domain (residues 1 to 642), C-terminal FLAG tag: residues 1-642 of Q8IZL8

Results are given in words; binding and its absence hold for the method and conditions named. Binding seen in cells or lysates may run through a third protein. Some results given as binding are weak or reduced against the parent protein; the word gives no strength. For some assays here: Where a sequence is shown, tags or fusion partners need not be part of it.

For test [1], the target named is T1, TEX10, wild type, N-terminal GFP tag (human) (UniProt Q9NXF1).
T1 sequence: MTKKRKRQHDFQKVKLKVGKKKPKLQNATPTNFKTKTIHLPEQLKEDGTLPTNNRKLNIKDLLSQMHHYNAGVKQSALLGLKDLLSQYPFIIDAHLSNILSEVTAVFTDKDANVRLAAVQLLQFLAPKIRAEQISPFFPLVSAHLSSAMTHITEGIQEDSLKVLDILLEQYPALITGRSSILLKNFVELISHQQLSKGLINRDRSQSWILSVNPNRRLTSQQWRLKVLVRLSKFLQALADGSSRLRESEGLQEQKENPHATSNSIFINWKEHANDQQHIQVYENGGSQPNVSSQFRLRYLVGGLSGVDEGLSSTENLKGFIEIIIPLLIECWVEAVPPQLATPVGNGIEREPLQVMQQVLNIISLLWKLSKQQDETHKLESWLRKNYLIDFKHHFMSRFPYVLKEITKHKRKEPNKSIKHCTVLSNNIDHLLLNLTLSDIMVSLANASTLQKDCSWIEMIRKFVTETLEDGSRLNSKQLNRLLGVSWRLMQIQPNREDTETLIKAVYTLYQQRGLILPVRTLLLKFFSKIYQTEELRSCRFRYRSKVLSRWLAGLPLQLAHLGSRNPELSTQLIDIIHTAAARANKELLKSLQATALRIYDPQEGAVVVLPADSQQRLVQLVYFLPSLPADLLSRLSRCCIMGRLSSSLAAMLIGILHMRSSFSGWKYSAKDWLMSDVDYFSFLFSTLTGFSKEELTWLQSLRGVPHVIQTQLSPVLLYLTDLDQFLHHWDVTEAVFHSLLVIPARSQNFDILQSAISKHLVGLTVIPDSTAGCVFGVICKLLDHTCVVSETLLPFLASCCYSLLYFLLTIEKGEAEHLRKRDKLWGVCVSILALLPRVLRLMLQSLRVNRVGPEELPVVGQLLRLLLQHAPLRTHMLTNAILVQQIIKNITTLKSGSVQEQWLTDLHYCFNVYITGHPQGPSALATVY
Put plainly: co-IP; anti-GFP nanobody Sepharose; N-terminally GFP-tagged TEX10 variants as bait, exogenous rixosome including LAS1L-NOL9 co-transfected in HEK293FT; Western blot. In general terms: A western blot detects proteins with antibodies after separation by electrophoresis.

Test [2] has as its target SENP3 SUMO protease domain (residues 303 to 574), N-terminal FLAG tag (human) (UniProt Q9H4L4). Put plainly: co-IP; anti-FLAG M2 affinity gel; N-terminally FLAG-tagged SENP3 truncations as bait, exogenous rixosome co-transfected in HEK293FT; Western blot.
The target in test [3] is PELP1, wild type, C-terminal FLAG tag (human) (UniProt Q8IZL8). Put plainly: co-IP; anti-FLAG M2 affinity gel; FLAG-tagged PELP1 variants as bait, exogenous rixosome subunits co-transfected in HEK293FT; lysis in 50 mM Hepes pH 7.5, 200 mM NaCl, 5 mM MgCl2, 10% glycerol, 0.5% NP-40, 1 mM DTT, 4°C; SDS-PAGE and Western blot.
Test [4] has as its target PELP1 Rix1 domain (residues 1 to 642), C-terminal FLAG tag (human) (UniProt Q8IZL8). Described as above.
In test [5] the target is PELP1 K826R (SUMOylation site lysine 826 to arginine) (human) (UniProt Q8IZL8). Described as above.
Test [6] concerns the target PELP1 Rix1 domain (residues 1 to 642), C-terminal FLAG tag (human), Q8IZL8. The test is described as above. The conditions noted are these: remark: other sources report otherwise.
Test [7] concerns the target T2, TEX10 CTE alone (C-terminal extension, residues 375 to 929), N-terminal GFP tag (human) (UniProt Q9NXF1).
T2 sequence: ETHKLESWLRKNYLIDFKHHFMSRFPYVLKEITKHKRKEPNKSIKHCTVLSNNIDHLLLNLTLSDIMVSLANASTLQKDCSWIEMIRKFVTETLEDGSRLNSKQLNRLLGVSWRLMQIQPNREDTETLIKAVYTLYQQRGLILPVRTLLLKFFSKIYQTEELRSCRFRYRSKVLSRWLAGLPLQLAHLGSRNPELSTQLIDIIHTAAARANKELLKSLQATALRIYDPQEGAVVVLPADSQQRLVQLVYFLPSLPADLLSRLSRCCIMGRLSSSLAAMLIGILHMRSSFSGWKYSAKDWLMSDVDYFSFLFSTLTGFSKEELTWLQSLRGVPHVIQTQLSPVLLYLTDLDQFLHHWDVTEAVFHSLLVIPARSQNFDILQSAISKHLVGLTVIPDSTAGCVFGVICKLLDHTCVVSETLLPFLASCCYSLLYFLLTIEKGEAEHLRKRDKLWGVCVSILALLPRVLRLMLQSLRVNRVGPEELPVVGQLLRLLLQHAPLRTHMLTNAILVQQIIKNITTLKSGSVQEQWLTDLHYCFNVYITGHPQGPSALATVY
In words: co-IP; anti-GFP nanobody Sepharose; N-terminally GFP-tagged TEX10 variants as bait, exogenous rixosome including LAS1L-NOL9 co-transfected in HEK293FT; Western blot.

Test [8] addresses PELP1, wild type, C-terminal FLAG tag (human), Q8IZL8. In words: co-IP; anti-FLAG M2 affinity gel; FLAG-tagged PELP1 variants as bait, exogenous rixosome subunits co-transfected in HEK293FT; lysis in 50 mM Hepes pH 7.5, 200 mM NaCl, 5 mM MgCl2, 10% glycerol, 0.5% NP-40, 1 mM DTT, 4°C; SDS-PAGE and Western blot. The conditions noted are these: remark: other sources report otherwise.

B1: WDR18, co-expressed rixosome subunit (protein, UniProt Q9BV38 1-432)
chain: MAAPMEVAVCTDSAAPMWSCIVWELHSGANLLTYRGGQAGPRGLALLNGEYLLAAQLGKNYISAWELQRKDQLQQKIMCPGPVTCLTASPNGLYVLAGVAESIHLWEVSTGNLLVILSRHYQDVSCLQFTGDSSHFISGGKDCLVLVWSLCSVLQADPSRIPAPRHVWSHHALPITDLHCGFGGPLARVATSSLDQTVKLWEVSSGELLLSVLFDVSIMAVTMDLAEHHMFCGGSEGSIFQVDLFTWPGQRERSFHPEQDAGKVFKGHRNQVTCLSVSTDGSVLLSGSHDETVRLWDVQSKQCIRTVALKGPVTNAAILLAPVSMLSSDFRPSLPLPHFNKHLLGAEHGDEPRHGGLTLRLGLHQQGSEPSYLDRTEQLQAVLCSTMEKSVLGGQDQLRVRVTELEDEVRNLRKINRDLFDFSTRFITRPAK
On to B1, for which the binding result in test [1], in test [2], in test [3], in test [4] and in test [5] was “binds” in each case.

B2: TEX10, co-expressed rixosome subunit found with PELP1 or SENP3 baits, Q9NXF1 1-929 (protein)
chain: T1 sequence
Take B2: the binding entry in test [6] is listed as “binds”.

B3: LAS1L-NOL9 (RNase PNK), co-expressed rixosome module (complex, UniProt Q9Y4W2 1-734; Q5SY16 1-702)
chain 1: MSWESGAGPGLGSQGMDLVWSAWYGKCVKGKGSLPLSAHGIVVAWLSRAEWDQVTVYLFCDDHKLQRYALNRITVWRSRSGNELPLAVASTADLIRCKLLDVTGGLGTDELRLLYGMALVRFVNLISERKTKFAKVPLKCLAQEVNIPDWIVDLRHELTHKKMPHINDCRRGCYFVLDWLQKTYWCRQLENSLRETWELEEFREGIEEEDQEEDKNIVVDDITEQKPEPQDDGKSTESDVKADGDSKGSEEVDSHCKKALSHKELYERARELLVSYEEEQFTVLEKFRYLPKAIKAWNNPSPRVECVLAELKGVTCENREAVLDAFLDDGFLVPTFEQLAALQIEYEDGQTEVQRGEGTDPKSHKNVDLNDVLVPKPFSQFWQPLLRGLHSQNFTQALLERMLSELPALGISGIRPTYILRWTVELIVANTKTGRNARRFSAGQWEARRGWRLFNCSASLDWPRMVESCLGSPCWASPQLLRIIFKAMGQGLPDEEQEKLLRICSIYTQSGENSLVQEGSEASPIGKSPYTLDSLYWSVKPASSSFGSEAKAQQQEEQGSVNDVKEEEKEEKEVLPDQVEEEEENDDQEEEEEDEDDEDDEEEDRMEVGPFSTGQESPTAENARLLAQKRGALQGSAWQVSSEDVRWDTFPLGRMPGQTEDPAELMLENYDTMYLLDQPVLEQRLEPSTCKTDTLGLSCGVGSGNCSNSSSSNFEGLLWSQGQLHGLKTGLQLF
chain 2: MADSGLLLKRGSCRSTWLRVRKARPQLILSRRPRRRLGSLRWCGRRRLRWRLLQAQASGVDWREGARQVSRAAAARRPNTATPSPIPSPTPASEPESEPELESASSCHRPLLIPPVRPVGPGRALLLLPVEQGFTFSGICRVTCLYGQVQVFGFTISQGQPAQDIFSVYTHSCLSIHALHYSQPEKSKKELKREARNLLKSHLNLDDRRWSMQNFSPQCSIVLLEHLKTATVNFITSYPGSSYIFVQESPTPQIKPEYLALRSVGIRREKKRKGLQLTESTLSALEELVNVSCEEVDGCPVILVCGSQDVGKSTFNRYLINHLLNSLPCVDYLECDLGQTEFTPPGCISLLNITEPVLGPPFTHLRTPQKMVYYGKPSCKNNYENYIDIVKYVFSAYKRESPLIVNTMGWVSDQGLLLLIDLIRLLSPSHVVQFRSDHSKYMPDLTPQYVDDMDGLYTKSKTKMRNRRFRLAAFADALEFADEEKESPVEFTGHKLIGVYTDFAFRITPRNRESHNKILRDLSILSYLSQLQPPMPKPLSPLHSLTPYQVPFNAVALRITHSDVAPTHILYAVNASWVGLCKIQDDVRGYTNGPILLAQTPICDCLGFGICRGIDMEKRLYHILTPVPPEELRTVNCLLVGAIAIPHCVLKCQRGIEGTVPYVTTDYNFKLPGASEKIGAREPEEAHKEKPYRRPKFCRKMK
In the case of B3, the binding result in test [7], in test [1], in test [2] and in test [5] was “binds” in each case.

B4: LAS1L-NOL9 (RNase PNK), co-expressed rixosome module, Q9Y4W2 1-734; Q5SY16 1-702 (complex)
chain 1: B3 chain 1
chain 2: B3 chain 2
Consider B4, for which the binding result in test [8] is “binds”.
